About 220 (0.56%) of roughly 39,000 compounds showed activity. The list shows a part of the results.
Tested on: Escherichia coli K-12 BW25113
Test: relative growth (OD600 normalised to plate interquartile mean) (fraction); higher = less growth inhibition, active = 0.2 or less
Conditions: 50 µM; LB; incubation time: overnight (16-24 h)
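Further: static incubation at 37 °C against the wild-type strain, values averaged over two biological replicates.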

SMILES | relative growth
COc1ccc(CN(C)C[C@H]2OCCCC[C@@H](C)Oc3ccc(NS(=O)(=O)c4ccc(Cl)cc4)cc3C(=O)N([C@@H](C)CO)C[C@H]2C)cc1 | inactive: 0.836
COc1ccc(NC(=O)N(C)C[C@@H]2Oc3ncc(C#C[C@H](C)O)cc3C(=O)N([C@@H](C)CO)C[C@H]2C)cc1 | inactive: 0.992
O=C(C[C@H]1C=C[C@@H](NC(=O)C2CC2)[C@@H](CO)O1)NCCCN1CCOCC1 | inactive: 0.991
C[N+](C)(C)CCCCNC(=O)[C@H]1C[C@H]2C(=O)N3CCC[C@H]3C(=O)N2[C@H]1c1cccc(OCCO)c1 | inactive: 0.969
CNC(=O)[C@H]1C[C@@H]2CN(c3ncc(F)cn3)C[C@H]1O2 | inactive: 0.976
COc1ccc(NC(=O)Nc2ccc3c(c2)C(=O)N([C@@H](C)CO)C[C@H](C)[C@@H](CN(C)S(=O)(=O)c2cccs2)OCCCC[C@@H](C)O3)cc1 | inactive: 1.04
C[C@@H]1CN([C@@H](C)CO)C(=O)c2cc(C#Cc3ccccn3)cnc2O[C@H]1CN(C)C(=O)CCN1CCCCC1 | inactive: 0.994
C[C@@H]1CCCCO[C@H](CN(C)CC2CC2)[C@H](C)CN([C@H](C)CO)C(=O)c2cc(NC(=O)NC3CCCCC3)ccc2O1 | inactive: 0.975
OCc1ccccc1OC1OC(CO)C(O)C(O)C1O (stereo not given) | inactive: 1.02
CCCNC(=O)[C@@]1(c2ccc([N+](=O)[O-])cc2)CC(=O)N(CC23CC4CC(CC(C4)C2)C3)[C@@H]1c1ccc(CO)cc1I | inactive: 1.04
C=C1CCC(O)CC1=CC=C1CCCC2(C)C1CCC2C(C)C=CC(C)C(C)C (stereo not given) | inactive: 1.14
C[C@@H]1CN([C@@H](C)CO)C(=O)c2cc(NC(=O)CCCN(C)C)ccc2O[C@@H]1CN(C)Cc1ccccc1 | inactive: 0.996
Cc1noc(C)c1NC(=O)Nc1ccc2c(c1)C(=O)N([C@@H](C)CO)C[C@@H](C)[C@@H](CN(C)C(=O)NC(C)C)O2 | inactive: 0.98
COc1ccc(NC(=O)Nc2cccc3c2O[C@H](CN(C)S(C)(=O)=O)[C@H](C)CN([C@@H](C)CO)C3=O)cc1 | inactive: 0.841
C[C@@H]1CN([C@@H](C)CO)C(=O)Cc2cc(NS(=O)(=O)c3ccc(F)cc3)ccc2O[C@H]1CN(C)Cc1ccncc1 | inactive: 0.917
C[C@H](CO)N1C[C@H](C)[C@H](CN(C)C(=O)c2ccccc2)Oc2cc(Br)ccc2S1(=O)=O | inactive: 0.999
NCCc1cc2nc(-c3ccncc3)ccn2n1 | inactive: 0.945
C[C@H](CO)N1C[C@H](C)[C@H](CN(C)C(=O)C2CCCCC2)OCCCC[C@H](C)Oc2ccc(NC(=O)NC3CCCCC3)cc2C1=O | inactive: 0.99
C[C@H]1CN([C@@H](C)CO)C(=O)c2cccc(NC(=O)Nc3ccc4c(c3)OCO4)c2O[C@@H]1CN(C)Cc1ccc(C(F)(F)F)cc1 | inactive: 0.868
COc1ccc(S(=O)(=O)Nc2cccc3c2O[C@@H](CN(C)C(=O)Nc2cccc4ccccc24)[C@@H](C)CN([C@H](C)CO)C3=O)cc1 | inactive: 1.01

SMILES | relative growth
C[C@H](CO)N1C[C@H](C)[C@H](CN(C)C(=O)NC2CCCCC2)Oc2ccc(NC(=O)CCCN(C)C)cc2CC1=O | inactive: 0.995
O=C(C[C@H]1C[C@H]2c3cc(NC(=O)Nc4ccc(C(F)(F)F)cc4)ccc3O[C@H]2[C@@H](CO)O1)NCc1cc(F)ccc1F | inactive: 1.01
C[C@H](CO)N1C[C@H](C)[C@@H](CN(C)C(=O)C2CCCCC2)Oc2cc(C#Cc3ccncc3)ccc2S1(=O)=O | inactive: 0.991
Cc1ccc(S(=O)(=O)N2C[C@H](O)COC[C@@H]3O[C@@H](CC(=O)NCCCN(C)C)CC[C@H]32)cc1 | inactive: 0.984
Cc1noc(C)c1NC(=O)Nc1ccc2c(c1)C(=O)N([C@@H](C)CO)C[C@@H](C)[C@H](CN(C)Cc1ccc(C(F)(F)F)cc1)O2 | inactive: 0.98
Cl.NC(N)=NC(=O)Cc1c(Cl)cccc1Cl | inactive: 1.02
C[C@@H]1CN([C@@H](C)CO)C(=O)CCCn2nncc2CO[C@@H]1CN(C)S(=O)(=O)c1ccc2c(c1)OCCCO2 | inactive: 0.98
O=C(C[C@@H]1C=C[C@H](NC(=O)CN2CCOCC2)[C@H](CO)O1)NCCc1ccncc1 | inactive: 0.97
O=C(C[C@H]1C[C@@H]2c3cc(NC(=O)c4ccc5c(c4)OCO5)ccc3O[C@@H]2[C@@H](CO)O1)NCc1ccc(Oc2ccccc2)cc1 | inactive: 1.03
CC(C)NC(=O)N(C)C[C@@H]1OCCCC[C@@H](C)Oc2ccc(NC(=O)Nc3ccc(F)cc3)cc2C(=O)N([C@@H](C)CO)C[C@H]1C | inactive: 1
CN(C)CC(=O)N1[C@@H]2c3ccc(-c4cccnc4)c(=O)n3C[C@H]1[C@H](CO)[C@H]2C(=O)NC1CCC1 | inactive: 0.986
CC1(C)C(=O)NCCN1C(=O)c1ccco1 | inactive: 0.984
C[C@@H]1CCCCO[C@@H](CN(C)S(=O)(=O)c2ccc(F)cc2)[C@@H](C)CN([C@@H](C)CO)C(=O)c2cc(NS(C)(=O)=O)ccc2O1 | inactive: 1.01
Cc1noc(C)c1NC(=O)Nc1ccc2c(c1)C(=O)N([C@H](C)CO)C[C@H](C)[C@@H](CN(C)C(=O)NC(C)C)O2 | inactive: 0.985
CN1CCN(C(=O)C[C@@H]2CC[C@H]3[C@H](COc4ccc(NC(=O)c5ccc(F)c(F)c5)cc4C(=O)N3C)O2)CC1 | inactive: 0.986
C[C@@H]1CN([C@@H](C)CO)C(=O)c2cccc(NC(=O)c3ccncc3)c2O[C@H]1CN(C)Cc1ccc(-c2ccccc2)cc1 | inactive: 1.03
C[C@H](CO)N1C[C@H](C)[C@H](CN(C)CC2CC2)Oc2cc(C#Cc3ccccc3F)ccc2S1(=O)=O | inactive: 0.982
O=C(C[C@@H]1CC[C@H]2[C@@H](COC[C@H](O)CN2C(=O)c2ccc3c(c2)OCO3)O1)NCCN1CCCCC1 | inactive: 0.93
C[C@H]1CN([C@@H](C)CO)C(=O)c2cccc(NS(C)(=O)=O)c2O[C@@H]1CN(C)S(=O)(=O)c1ccccc1 | inactive: 0.916
COc1ccc(CN(C)C[C@H]2Oc3ccc(NC(=O)CCN4CCOCC4)cc3CC(=O)N([C@H](C)CO)C[C@@H]2C)cc1 | inactive: 0.966

SMILES | relative growth
Cc1ccc(S(=O)(=O)Nc2ccc3c(c2)C(=O)N([C@@H](C)CO)C[C@H](C)[C@@H](CN(C)C(=O)Nc2c(C)noc2C)OCCCC[C@@H](C)O3)cc1 | inactive: 1.03
C[C@H]1CN([C@@H](C)CO)S(=O)(=O)c2ccc(C#CC3CC3)cc2O[C@@H]1CN(C)Cc1ccccc1F | inactive: 1.03
C[C@H]1CN([C@@H](C)CO)S(=O)(=O)c2ccc(C#Cc3ccccn3)cc2O[C@@H]1CN(C)Cc1ccccc1 | inactive: 1.02
O=C(C[C@H]1C=C[C@@H](NC(=O)CN2CCOCC2)[C@@H](CO)O1)NC1CCC1 | inactive: 1.01
CCCNC(=O)N1C[C@H](O)COC[C@@H]2O[C@@H](CC(=O)NCc3ccncn3)CC[C@H]21 | inactive: 1.01
C[C@H](CO)N1C[C@H](C)[C@H](CN(C)S(=O)(=O)c2cn(C)cn2)Oc2ccc(N(C)C)cc2CC1=O | inactive: 0.975
C[C@@H]1CN([C@H](C)CO)C(=O)Cc2cc(NS(=O)(=O)c3ccc(Cl)cc3)ccc2O[C@H]1CN(C)Cc1ccc(-c2ccccc2)cc1 | inactive: 0.966
C[C@H]1CCCCO[C@H](CN(C)C(=O)CCC(F)(F)F)[C@@H](C)CN([C@@H](C)CO)C(=O)c2cc(NC(=O)C3CCCCC3)ccc2O1 | inactive: 0.989
C=CCC[C@H](Cc1ccc(F)cc1)C(=O)OC[C@@H](NC(=O)[C@@H](CC=C)CC(=O)N[C@@H](CO)Cc1ccccc1)C(C)(C)C | inactive: 1.05
Cc1ccc(S(=O)(=O)N(C)C[C@H]2Oc3c(NS(C)(=O)=O)cccc3C(=O)N([C@@H](C)CO)C[C@H]2C)cc1 | inactive: 1.02
C[C@H](CO)N1C[C@H](C)[C@@H](CN(C)C(=O)Nc2ccc(F)cc2)Oc2ccc(NC(=O)Cn3cnnn3)cc2CC1=O | inactive: 1
C[C@@H]1CCCCO[C@H](CN(C)C(=O)Nc2ccc3c(c2)OCO3)[C@@H](C)CN([C@H](C)CO)C(=O)c2cc(NS(=O)(=O)c3ccc(Cl)cc3)ccc2O1 | inactive: 1.04
Nc1cnn([C@H]2O[C@@H](COC(=O)c3ccccc3)[C@@H](O)[C@@H]2O)c(=O)n1 | inactive: 1.05
C[C@@H]1CCCCO[C@H](CN(C)S(=O)(=O)c2cccs2)[C@@H](C)CN([C@@H](C)CO)C(=O)c2cc(NC(=O)NC3CCCCC3)ccc2O1 | inactive: 1.01
CCCNC(=O)N1C[C@@H](O)COC[C@@H]2O[C@@H](CC(=O)N3CCOCC3)CC[C@H]21 | inactive: 0.995
CN(C)CCNC(=O)COc1c2cccc1Cc1cccc(c1OCC(=O)NCCN(C)C)Cc1cccc(c1OCC(=O)NCCN(C)C)Cc1cccc(c1OCC(=O)NCCN(C)C)C2 | inactive: 0.951
COCc1cn(CC[C@@H]2CC[C@H](NC(=O)CCN3CCCCC3)[C@H](CO)O2)nn1 | inactive: 1
C[C@H](CO)N1C[C@H](C)[C@H](CN(C)C(=O)Nc2ccc(C(F)(F)F)cc2)Oc2ccc(NC(=O)Nc3ccccc3)cc2CC1=O | inactive: 1.01
C[C@@H]1CN([C@H](C)CO)S(=O)(=O)c2ccc(-c3cccnc3)cc2O[C@@H]1CN(C)C(=O)NC1CCCC1 | inactive: 1.01
COc1ccc(NC(=O)Nc2ccc3c(c2)C(=O)N([C@@H](C)CO)C[C@@H](C)[C@H](CN(C)S(=O)(=O)c2ccc(OC)cc2)OCCCC[C@@H](C)O3)cc1 | inactive: 1.03

From the supplement of paper PMC9446081
